According to the supplement of paper PMC8047034:
Where a name gives a salt, the structure may show the parent alone. This is one part of the list. Repeats are few or missing, and single values can be far off.

How the values were obtained:
OVCAR4 = test: log2 surviving fraction (library drug vs vehicle, or drug + carboplatin vs carboplatin alone; relative to plate median); ovarian cancer lines: OVCAR4 is platinum-sensitive and Ov4Carbo platinum-resistant; higher = more cell survival; details: library drug concentration 10 µM, 7 days
Ov4Carbo = test: as above; details: library drug concentration 10 µM, 7 days

SMILES | log2 surviving fraction (OVCAR4; carboplatin co-treatment 0 µM) | log2 surviving fraction (OVCAR4; carboplatin co-treatment 5 µM) | log2 surviving fraction (Ov4Carbo; carboplatin co-treatment 0 µM) | log2 surviving fraction (Ov4Carbo; carboplatin co-treatment 5 µM)
Cc1cc(NC(=O)C2=C(O)c3ccccc3S(=O)(=O)N2C)no1 [Isoxicam] | -0.302 | -1.37 | -0.541 | 0.777
C[C@]12CC[C@H](O)C[C@H]1CC[C@@H]1[C@@H]2C[C@@H](O)[C@]2(C)[C@@H](C3=CC(=O)OC3)CC[C@]12O [Digoxigenin] | -10.1 | -7.91 | -8.41 | -7.73
CC(=O)Oc1cc(C(F)(F)F)ccc1C(=O)O [Triflusal] | -0.00993 | -0.406 | -0.241 | -0.261
NC(=O)CC[C@H](N)C(=O)O [L-Glutamine] | 0.616 | 0.866 | -0.175 | 0.174
CN[C@@H]1[C@H](O[C@H]2[C@H](O[C@H]3[C@H](O)[C@@H](O)[C@H](N=C(N)N)[C@@H](O)[C@@H]3N=C(N)N)O[C@@H](C)[C@]2(O)C=O)O[C@@H](CO)[C@H](O)[C@H]1O [Streptomycin sulfate] | 0.845 | 0.365 | 1.64 | 0.832
COc1ccc2c(c1)c(CC(=O)OCC(=O)O)c(C)n2C(=O)c1ccc(Cl)cc1 [Acemetacin (Emflex)] | -0.198 | -0.00139 | 0.493 | -0.157
CC(C)n1c(/C=C/C(O)CC(O)CC(=O)O)c(-c2ccc(F)cc2)c2ccccc21 (stereo unspecified) [Fluvastatin sodium (Lescol)] | -5.65 | -4.29 | -4.17 | -3.32
CCCCc1ncc(/C=C(\Cc2cccs2)C(=O)O)n1Cc1ccc(C(=O)O)cc1 [Eprosartan Mesylate] | 0.0247 | -0.196 | 0.0952 | -0.232
Cc1cc(=O)n(-c2ccccc2)n1C [Antipyrine] | 0.331 | 0.46 | 0.368 | -0.146
